Experimental findings from ChEMBL document CHEMBL4888484, “Replenishing the malaria drug discovery pipeline: Screening and hit evaluation of the MMV Hit Generation Library 1 (HGL1) against asexual blood stage Plasmodium falciparum ,using a nano luciferase reporter read-out” (2022) are described below.

Molecules are shown by their SMILES. Hit rate of the full screen: of about 150,000 compounds, about 540 (0.36%) showed an effect of 50% or more. This is one part of the list.

As usually defined, the % Inhibition is the drop in the measured response relative to a control, in per cent.

This assay has as its system Plasmodium falciparum. Briefly: Primary screen in NF54 nanoGlo assay, in single point, at 2uM, 72h; a lower Z score goes with more inhibition. It counts as functional, Erythrocyte. Particulars: timepoint 72 hour.
With `CN(CCc1cnccn1)Cc1c(Cl)cccc1C(=O)O`, the “% Inhibition” value is given as -10% and the Z score was determined as 1.92.
Take `Cc1ccc(CNC(=O)c2[nH]nc3c2CCCC3)o1`: the “% Inhibition” value is -13% and the Z score stood at 1.78.
Regarding `O=C(Nc1ccccn1)C1C2CCC3C(CCC21)C3(Cl)Cl` (configuration not stated), the “% Inhibition” value is recorded as -14% and the Z score was 1.51.
In the same order, the values of `O=C(CCC(=O)c1ccccc1)NCC#CCOc1cccc(C(F)(F)F)c1` are -8% and 1.3.
For `Cn1cc([C@@H]2CCCN2CCOc2cccc(C#N)c2)cn1`, the “% Inhibition” value is given as -13% and the Z score was found to be 1.64.
The matching figures for `COCCCN1CCN(Cc2ccccc2)CC[C@H]1c1nc(C)n[nH]1`: -2% and 0.35.
As for `Cc1cnc(C)c(N2CCC[C@@](CO)(CC3CC3)C2)n1`, the “% Inhibition” value was found to be 5% and the Z score is given as -0.75.
On to `O=C(NCCN1CCCCC1)c1ccc2c(=O)n(-c3ccc(F)cc3)c(N3CCCC3)nc2c1`, for which the “% Inhibition” value is given as -10% and the Z score is 1.8.
For `Cc1ccccc1OC[C@H](O)C(=O)NCCC(=O)Nc1cc(F)ccc1F`, the “% Inhibition” value stood at 1% and the Z score was -0.11.
Take `CN1CCC[C@H](CNC(=O)c2cccc(CC(=O)O)c2)[C@H]1c1ccccc1`: the “% Inhibition” value was -4% and the Z score came out at 0.63.
Take `CCOC(=O)c1cc(-c2ccc(N3CCN(C(=O)c4ccc(F)cc4F)CC3)cc2)n(-c2cccc(F)c2)n1`: the “% Inhibition” value was -6% and the Z score is 0.69.
As to `C[C@H]1Cc2ccccc2N1C(=O)Cn1cc(S(=O)(=O)Cc2ccccc2)c2ccccc21`, the “% Inhibition” value worked out at 1% and the Z score is reported as -0.18.
On to `C[C@H](c1ccccc1)N(CC(N)=O)C(=O)c1cc(C(F)F)n(C)n1`, for which the “% Inhibition” value came out at 0% and the Z score is -0.02.
As to `COc1cc(C)c(CN2CCC[C@H](CN3CCN(C)CC3)C2)cc1C`, the “% Inhibition” value is listed as -7% and the Z score is recorded as 0.62.
The matching figures for `O=S(=O)(CCCOc1ccccc1)NC[C@H]1CCCN1c1ccccc1`: -13% and 2.45.
Regarding `CCC(C(=O)N1CCC(c2nc(C)no2)C1)N1CCCC1=O` (configuration not stated), the “% Inhibition” value is given as -18% and the Z score was found to be 2.42.
With `COc1ccc(CNC(=O)[C@H]2C[C@@H](C(=O)Nc3ccc(F)cc3)CN(CC(C)C)C2)cc1`, the “% Inhibition” value was -8% and the Z score worked out at 0.99.
As to `CCCN1CC(CNS(=O)(=O)C2CCOC2C)CC1=O` (configuration not stated), the “% Inhibition” value is reported as -6% and the Z score came out at 0.67.
In the same order, the values of `CN1C(=O)COC(C(=O)N2CCCc3n[nH]cc32)C1c1ccccc1` (configuration not stated) are -3% and 0.34.
Regarding `CCCCNC(=O)[C@@H]1C[C@H](COc2ccc(C)nc2)CN(Cc2ccc(OC)c(OC)c2)C1`, the “% Inhibition” value was -5% and the Z score is on record as 0.55.
The matching figures for `N#Cc1nc(-c2cccnc2)oc1NCCc1ccccc1`: 2% and -0.3.
With `COc1ccccc1N(CC(=O)Nc1cc(C)on1)S(=O)(=O)c1ccc(F)cc1`, the “% Inhibition” value is reported as -1% and the Z score is recorded as 0.23.
Take `COc1cc(OC)c2ncnc(N3CCC([C@@H]4CCCN4)CC3)c2c1`: the “% Inhibition” value is reported as -7% and the Z score was found to be 1.38.
The matching figures for `Cc1ncccc1C(=O)Nc1ccc2c(c1)N(C)CCN(C)C2`: -16% and 1.37.
In the same order, the values of `CC1CC2CCCCC2N1C(=O)Nc1cnns1` (configuration not stated) are -10% and 1.41.
With `Cc1cccc(CNC(=O)[C@]2(C)Cn3cnc(C(=O)N4CCCCCC4)c3C(=O)N2C2CC2)c1`, the “% Inhibition” value is listed as -16% and the Z score is 1.65.
As to `O=C(c1cccc2ccccc12)N1CC2C3CCC(O3)C2C1` (configuration not stated), the “% Inhibition” value is recorded as 0% and the Z score is listed as -0.01.
In the same order, the values of `CC1=C(CCN2CCC3(CC2)C[C@@H]3C(=O)N2CCN(c3ccccc3)CC2)C(C)(C)CCC1` are 1% and -0.17.
With `C#Cc1cccc(NC(=O)N[C@H](CCO)c2ccccc2)c1`, the “% Inhibition” value amounted to 5% and the Z score is -0.92.
For the compound `C[C@@H](c1ccccn1)N(Cc1ccccc1)C(=O)NC1CC1`, the “% Inhibition” value stood at 7% and the Z score is -1.16.
For the compound `O=C(CNC(=O)C(F)(F)[C@H](O)c1ccccc1)NC1CCCC1`, the “% Inhibition” value is reported as -8% and the Z score was determined as 1.52.
Take `CCCN(CCC(=O)N1CCNCC1)S(=O)(=O)c1ccc(CC)cc1`: the “% Inhibition” value is listed as -3% and the Z score was 0.52.
In the same order, the values of `CN1C[C@]2(CCN(c3cc(N4CCC(O)CC4)ncn3)C2)OC1=O` are -14% and 1.28.
With `CCC(=O)NS(=O)(=O)Cc1cc(OC)ccc1Br`, the “% Inhibition” value is -12% and the Z score was determined as 2.27.
Regarding `C[C@H](NC(=O)c1cc(=O)n(-c2ccccc2)[nH]1)C1=CCCCC1`, the “% Inhibition” value is -14% and the Z score was found to be 1.75.
In the same order, the values of `O=C(CN1C(=O)NC2(CCS(=O)(=O)CC2)C1=O)Nc1cccc(Cl)c1` are 10% and -1.15.
Regarding `Cn1cc([C@H]2C[C@@H]2C(=O)N2CCc3c(C#N)cccc32)cn1`, the “% Inhibition” value is -20% and the Z score is 2.78.
As to `CCC(CC)N1C[C@]23C=C[C@H](O2)C(C(=O)N2CCNC(=O)CC2)C3C1=O` (some centres not stated), the “% Inhibition” value is recorded as 3% and the Z score is -0.37.
Regarding `O=C(CN1CCO[C@@H](CC(c2ccccc2)c2ccccc2)C1)NC1CC1`, the “% Inhibition” value is recorded as -10% and the Z score came to 1.85.
For the compound `COc1cccc(C2C(NCc3nc(C)c(C)o3)CCN2C2CC2)c1` (configuration not stated), the “% Inhibition” value is -13% and the Z score stood at 1.26.
On to `CC(C)(C)OC(=O)N1CC2CC1C2NC(=O)C1CC=CCC1` (configuration not stated), for which the “% Inhibition” value was determined as 14% and the Z score is recorded as -1.67.
